Values quoted from earlier work, collected in US20240247069A1, “FGFR3 BINDING MOLECULES AND METHODS OF USE THEREOF” (Regeneron Pharmaceuticals, Inc., priority 2023, published 2024).
Positions count from the first letter of the chain named. Read-outs that look alike come from different tables or passages of the source.

B1: PRQ-021: anti-FGFR3 IIIc antibody of WO 2006/048877 A2; VH SEQ ID NO:32, VL SEQ ID NO:33 (antibody, V domains shown)
VH: QVQLVQSGAEVKKPGSSVKVSCKASGGTFSSYAISWVRQAPGQGLEWMGGIIPIFGTANYAQKFQGRVTITADESTSTAYMELSSLRSEDTAVYYCARDNWFKPFSDVWGQGTLVTVSS
VL: DIVMTQSPDSLAVSLGERATINCRSSQSVLYSSNNKNYLAWYQQKPGQPPKLLIYWASTRESGVPDRFSGSGSGTDFTLTISSLQAEDVAVYYCQQYDSIPYTFGQGTKVEIKRT
B2: MS-Pro-21: anti-FGFR3 Ig-like domain 3 antibody of WO 2002/102972 A2; VH SEQ ID NO:32, VL SEQ ID NO:33 (antibody, V domains shown)
VH: B1 VH
VL: B1 VL
B3: MS-Pro-24: anti-FGFR3 Ig-like domain 3 antibody of WO 2002/102972 A2; VH SEQ ID NO:34, VL SEQ ID NO:35 (antibody, V domains shown)
VH: B1 VH with D99V, W101H, F102W, K103T, P104Y, F105T, S106F, V108Y
VL: DIVLTQSPATLSLSPGERATLSCRASQSVSSSYLAWYQQKPGQAPRLLIYGASSRATGVPARFSGSGSGTDFTLTISSLEPEDFATYYCQQSNYPDTFGQGTKVEIKRT
B4: PRQ-024: anti-FGFR3 IIIc antibody of WO 2006/048877 A2; VH SEQ ID NO:34, VL SEQ ID NO:48 (antibody, V domains shown)
VH: B1 VH with D99V, W101H, F102W, K103T, P104Y, F105T, S106F, V108Y
VL: DIVLTQSPATLSLSPGERATLSCRASQSVSSSYLAWYQQKPGQAPRLLIYGASSRATGVPARFSGSGSGTDFTLTISSLEPEDFATYYCQQMSNYPDTFGQGTKVEIKRT

System: FGFR3
Conditions: cited from earlier work
[1] = Table T-3, exemplary FGFR3 D3 binding sequences from cited PCT publications
[2] = literature antibodies, sequences from cited PCT publications

Molecule	Activity [1]	Activity [2]
B1	Antagonistic	Antagonistic
B2	Antagonistic	Antagonistic
B3	Antagonistic	Antagonistic
B4	Antagonistic	Antagonistic
